# Source: PubChem BioAssay (Tox21)
# Inconclusive means that the source gave no clear call. Such entries were picked first, then a sample of the others. For part of these data: A potency beside an inconclusive call is a rough fit, not a confirmed value. Calls of active or inactive are those of the source. Unless noted, calls come from the whole dose curve; as a rule, active = well fitted curve in the direction sought with a large enough effect in the repeat runs; inconclusive = weak or mixed curves; inactive = no such curve, though single readings can be large; an effect the other way counts as inactive or inconclusive.
# Key:
# [1] = qHTS assay to identify small molecule that activate the aryl hydrocarbon receptor (AhR) signaling pathway - cell viability counter screen (AID 743086); note: potency is the fitted concentration of half-maximal effect; nearly all actives have a fitted effect of over 45% in size
# Procedure, shortened: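 Cytotoxicity counter screen: CellTiter-Fluor signal (30 min, 37 C) in 4000 HepG2 cells/well carrying the DRE-luciferase reporter, following 24 h compound exposure at 37 C.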
# [2] = biological target: Peroxisome proliferator-activated receptor gamma (Homo sapiens) (UniProt P37231); assay: qHTS assay to identify small molecule antagonists of the peroxisome proliferator-activated receptor gamma (PPARg) signaling pathway (AID 743191; calls by dose curve; note: % is set by controls: 0 for no effect and ±100 for the full control effect; nearly all actives have a fitted effect of over 30% in size); settings: HEK293H PPARg-UAS-bla, beta-lactamase ratio, antagonist, 17 h; ratio activity, negative = inhibition: at 62.6 µM (top of the series) unless noted
# Procedure, shortened: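 Beta-lactamase reporter under UAS control in HEK293H PPARg-bla cells; compound treatment 17 h at 37C. Read-out: fluorescence intensity after 1 h room-temperature incubation with LiveBLAzer B/G FRET substrate.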
# [3] = qHTS assay for small molecule agonists of the antioxidant response element (ARE) signaling pathway - cell viability counter screen (AID 743203; calls by dose curve; note: potency is the fitted concentration of half-maximal effect; nearly all actives have a fitted effect of over 55% in size); settings: ARE-bla HepG2 viability, CellTiter-Glo luminescence, 16 h; viability change, negative = cytotoxic: at 73.3 µM (top of the series)
# Procedure, shortened: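 ARE-bla HepG2 cells were plated, rested 5 h at 37C/5% CO2, then exposed to compounds in DMSO for 16 h. Viability was read as CellTiter-Glo luminescence after 30 min at room temperature, in the same wells as the ARE screen.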
# [4] = qHTS assay for small molecule activators of the heat shock response signaling pathway (AID 743210; active = well fitted activation curve with a large enough effect in the signal ratio in the repeat runs, with a control signal flat, not every such curve was filed as active; inconclusive = weak or mixed curves; the % refers to the signal ratio; note: potency is the fitted concentration of half-maximal effect); settings: HeLa HSE-bla reporter, beta-lactamase ratio, 5 h; activation: at 62.6 µM (top of the series)
# Procedure, shortened: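 HeLa HSE-bla cells, overnight plating; cpd in DMSO 5 h, 37 C; LiveBLAzer B/G FRET substrate 2.5 h RT; fluorescence intensity read.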
# [5] = qHTS assay to identify small molecule agonists of the peroxisome proliferator-activated receptor delta (PPARd) signaling pathway - cell viability counter screen (AID 743211); settings: PPARd-bla HEK293H viability, CellTiter-Glo luminescence, 17 h; activity change, negative = cytotoxicity: at 62.6 µM (top of the series); note: potency is the fitted concentration of half-maximal effect; nearly all actives have a fitted effect of over 55% in size
# Procedure, shortened: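 Counter screen for cytotoxicity run in parallel with the PPARd reporter screen. Beta-lactamase reporter HEK293H cells exposed to compounds 17 h; ATP-based CellTiter-Glo luminescence quantified viability.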
# [6] = biological target: Peroxisome proliferator-activated receptor delta (Homo sapiens) (UniProt Q03181); assay: qHTS assay to identify small molecule agonists of the peroxisome proliferator-activated receptor delta (PPARd) signaling pathway (AID 743212; calls by dose curve; note: potency is the fitted concentration of half-maximal effect); settings: HEK293H PPARd-UAS-bla, beta-lactamase FRET ratio, 17 h; activation: at 62.6 µM (top of the series) unless noted
# Procedure, shortened: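 HEK293H PPARd-bla cells; 5 h preincubation 37 C/5% CO2; compound (DMSO) 37 C; LiveBLAzer B/G FRET substrate 2 h RT; fluorescence intensity.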
# [7] = qHTS assay to identify small molecule antagonists of the peroxisome proliferator-activated receptor delta (PPARd) signaling pathway - cell viability counter screen (AID 743213); settings: PPARd-bla HEK293H viability, CellTiter-Glo luminescence, 17 h; viability change, negative = cytotoxic: at 62 µM (top of the series) unless noted; note: potency is the fitted concentration of half-maximal effect; nearly all actives have a fitted effect of over 50% in size
# Procedure, shortened: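 PPARd-bla HEK293H cells (3000/well) got compound plus 300 nM L165041 agonist for 17 h at 37 C. Viability in the same wells came from CellTiter-Glo luminescence after 30 min at room temperature.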
# [8] = biological target: Peroxisome proliferator-activated receptor delta (Homo sapiens) (UniProt Q03181); assay: qHTS assay to identify small molecule antagonists of the peroxisome proliferator-activated receptor delta (PPARd) signaling pathway (AID 743215; active = well fitted inhibition curve with a large enough effect in the signal ratio in the repeat runs, not every such curve was filed as active; inconclusive = weak or mixed curves, or effect the other way; inactive = no such curve, though single readings can be large or run the other way; the % refers to the signal ratio;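 note: cells stimulated with agonist L165041 at 300 nM final during compound exposure; % is set by controls: 0 for no effect and ±100 for the full control effect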); settings: HEK293H PPARd-UAS-bla, beta-lactamase FRET ratio, antagonist, 17 h; ratio activity, negative = inhibition: at 62 µM (top of the series) unless noted
# Procedure, shortened: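 PPARd-bla HEK293H cells (UAS-bla reporter) preincubated 5 h, then given compound plus 300 nM final L165041 agonist for 17 h at 37 C. Beta-lactamase activity read by LiveBLAzer B/G FRET substrate fluorescence after 2 h at room temperature.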
# [9] = qHTS assay to identify small molecule agonists of the farnesoid-X-receptor (FXR) signaling pathway - cell viability counter screen (AID 743218); settings: FXR-bla HEK293T viability, CellTiter-Glo luminescence, 16 h; viability change, negative = cytotoxic: at 62.6 µM (top of the series) unless noted; note: potency is the fitted concentration of half-maximal effect; nearly all actives have a fitted effect of over 45% in size
# Procedure, shortened: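 FXR-UAS-bla HEK 293T cells exposed to compounds for 16 h at 37C. Cytotoxicity read in the same wells by CellTiter-Glo luminescence after 30 min at room temperature, following the beta-lactamase FRET read.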
# [10] = biological target: Bile acid receptor (Homo sapiens) (UniProt Q96RI1); assay: qHTS assay to identify small molecule agonists of the farnesoid-X-receptor (FXR) signaling pathway (AID 743220; active = well fitted activation curve with a large enough effect in the signal ratio in the repeat runs, not every such curve was filed as active; inconclusive = weak or mixed curves, or effect the other way; the % refers to the signal ratio; note: % is set by controls: 0 for no effect and ±100 for the full control effect); settings: HEK293T FXR-UAS-bla, beta-lactamase FRET ratio, 16 h; activation: at 62.6 µM (top of the series) unless noted
# Procedure, shortened: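 Beta-lactamase reporter under UAS control in GeneBLAzer FXR HEK 293T cells (5000/well) measured with LiveBLAzer FRET substrate after 2 h at room temperature. Compound exposure lasted 16 h at 37C.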
# [11] = qHTS assay to identify small molecule antagonists of the farnesoid-X-receptor (FXR) signaling pathway - cell viability counter screen (AID 743221; active = well fitted cell-killing curve with a large enough effect in the repeat runs, not every such curve was filed as active; inconclusive = weak or mixed curves, or effect the other way; inactive = no such curve, though single readings can be large or run the other way; note: potency is the fitted concentration of half-maximal effect; nearly all actives have a fitted effect of over 50% in size); settings: FXR-bla HEK293T viability, CellTiter-Glo luminescence, 16 h; activity change, negative = cytotoxicity: at 62.6 µM (top of the series)
# Procedure, shortened: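 Multiplexed counter screen: viability of FXR-bla HEK 293T cells under agonist stimulation by chenodeoxycholic acid (50 uM, final) and test compound for 16 h at 37 C, measured by CellTiter-Glo luminescence in the reporter wells.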
# [12] = biological target: Vitamin D3 receptor (Homo sapiens) (UniProt P11473); assay: qHTS assay to identify small molecule agonists of the vitamin D receptor (VDR) signaling pathway (AID 743222; calls by dose curve; note: potency is the fitted concentration of half-maximal effect); settings: HEK293T VDR-UAS-bla, beta-lactamase FRET ratio, 16 h; activation: at 63.5 µM (top of the series) unless noted
# Procedure, shortened: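 VDR-bla cells plated 4 h at 37 C, then exposed to compounds for 16 h at 37 C. Beta-lactamase reporter activity measured by fluorescence after 2 h room-temperature loading with LiveBLAzer B/G FRET substrate.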
# [13] = biological target: Vitamin D3 receptor (Homo sapiens) (UniProt P11473); assay: qHTS assay to identify small molecule antagonists of the vitamin D receptor (VDR) signaling pathway (AID 743223; active = well fitted inhibition curve with a large enough effect in the signal ratio in the repeat runs, not every such curve was filed as active; inconclusive = weak or mixed curves, or effect the other way; inactive = no such curve, though single readings can be large or run the other way; the % refers to the signal ratio; note: potency is the fitted concentration of half-maximal effect); settings: VDR-UAS-bla HEK293T, beta-lactamase FRET ratio, 16 h; activity change, negative = inhibition: at 61 µM (top of the series) unless noted
# Procedure, shortened: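 Cells carrying a VDR-driven beta-lactamase reporter (VDR-bla) were co-treated with compound and 3 nM final 1alpha,25-dihydroxyvitamin D3 for 16 h at 37C; reporter activity was measured as FRET substrate fluorescence after 2 h at room temperature.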
# [14] = qHTS assay to identify small molecule agonists of the vitamin D receptor (VDR) signaling pathway - cell viability counter screen (AID 743224); settings: VDR-bla HEK293T viability, CellTiter-Glo luminescence, 16 h; activity change, negative = cytotoxicity: at 62.6 µM (top of the series) unless noted; note: potency is the fitted concentration of half-maximal effect; nearly all actives have a fitted effect of over 50% in size
# Procedure, shortened: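 VDR-bla cells, 4 h after plating, exposed to compounds for 16 h at 37C; viability then read in the same wells as CellTiter-Glo luminescence after 30 min at room temperature, following the bla FRET read.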
# [15] = qHTS assay to identify small molecule antagonists of the vitamin D receptor (VDR) signaling pathway - cell viability counter screen (AID 743225); settings: VDR-bla HEK293T viability, CellTiter-Glo luminescence, 16 h; viability change, negative = cytotoxic: at 61 µM (top of the series) unless noted; note: % is set by controls: 0 for no effect and ±100 for the full control effect; nearly all actives have a fitted effect of over 50% in size
# Procedure, shortened: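 HEK293T VDR-bla; cpd + 1a,25-(OH)2D3 3 nM final, 16 h 37C/5% CO2; B/G FRET substrate 2 h RT; then CellTiter-Glo 30 min RT, luminescence.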
# Tags give direction and shape of the fitted curve or compound fluorescence and quenching.
# Chain of UniProt P11473 (P11473 whole entry, looked up): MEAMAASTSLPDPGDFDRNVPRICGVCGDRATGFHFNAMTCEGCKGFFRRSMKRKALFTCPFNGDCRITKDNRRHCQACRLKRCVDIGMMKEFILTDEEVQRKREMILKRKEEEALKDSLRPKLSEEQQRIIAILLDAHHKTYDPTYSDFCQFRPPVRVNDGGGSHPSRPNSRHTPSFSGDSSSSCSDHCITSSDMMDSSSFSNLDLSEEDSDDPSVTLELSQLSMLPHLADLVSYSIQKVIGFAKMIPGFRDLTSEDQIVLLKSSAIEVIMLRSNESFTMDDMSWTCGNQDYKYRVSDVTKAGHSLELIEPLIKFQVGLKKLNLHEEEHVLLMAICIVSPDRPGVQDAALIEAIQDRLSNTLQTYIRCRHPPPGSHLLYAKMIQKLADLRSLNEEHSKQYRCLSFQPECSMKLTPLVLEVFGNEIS
# Chain of UniProt Q03181 (Q03181 whole entry, looked up): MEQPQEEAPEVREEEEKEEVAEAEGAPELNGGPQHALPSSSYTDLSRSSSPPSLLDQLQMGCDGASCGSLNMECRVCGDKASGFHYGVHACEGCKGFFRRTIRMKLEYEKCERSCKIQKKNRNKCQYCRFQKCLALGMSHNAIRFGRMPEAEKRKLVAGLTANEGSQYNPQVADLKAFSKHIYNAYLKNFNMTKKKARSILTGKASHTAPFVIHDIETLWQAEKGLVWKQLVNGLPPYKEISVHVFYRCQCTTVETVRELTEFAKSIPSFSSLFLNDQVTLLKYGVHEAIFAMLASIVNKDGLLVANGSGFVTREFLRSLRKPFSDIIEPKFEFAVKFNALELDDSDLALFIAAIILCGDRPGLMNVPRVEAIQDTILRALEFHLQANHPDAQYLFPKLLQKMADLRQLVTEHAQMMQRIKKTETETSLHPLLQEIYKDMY
# Chain of UniProt Q96RI1 (Q96RI1 whole entry, looked up): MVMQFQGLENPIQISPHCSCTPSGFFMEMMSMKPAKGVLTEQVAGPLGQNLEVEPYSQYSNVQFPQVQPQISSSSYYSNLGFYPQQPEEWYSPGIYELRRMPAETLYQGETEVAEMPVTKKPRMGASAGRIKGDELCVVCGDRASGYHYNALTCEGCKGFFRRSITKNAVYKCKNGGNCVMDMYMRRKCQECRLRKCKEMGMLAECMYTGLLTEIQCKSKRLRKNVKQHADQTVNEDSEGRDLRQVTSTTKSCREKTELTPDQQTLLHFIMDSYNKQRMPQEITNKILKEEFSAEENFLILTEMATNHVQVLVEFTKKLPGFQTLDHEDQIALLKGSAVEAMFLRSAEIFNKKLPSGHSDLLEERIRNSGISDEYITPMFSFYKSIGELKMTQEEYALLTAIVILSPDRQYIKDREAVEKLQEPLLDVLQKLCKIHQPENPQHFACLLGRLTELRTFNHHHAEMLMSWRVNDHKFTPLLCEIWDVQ
# Chain of UniProt P37231 (P37231 whole entry, looked up): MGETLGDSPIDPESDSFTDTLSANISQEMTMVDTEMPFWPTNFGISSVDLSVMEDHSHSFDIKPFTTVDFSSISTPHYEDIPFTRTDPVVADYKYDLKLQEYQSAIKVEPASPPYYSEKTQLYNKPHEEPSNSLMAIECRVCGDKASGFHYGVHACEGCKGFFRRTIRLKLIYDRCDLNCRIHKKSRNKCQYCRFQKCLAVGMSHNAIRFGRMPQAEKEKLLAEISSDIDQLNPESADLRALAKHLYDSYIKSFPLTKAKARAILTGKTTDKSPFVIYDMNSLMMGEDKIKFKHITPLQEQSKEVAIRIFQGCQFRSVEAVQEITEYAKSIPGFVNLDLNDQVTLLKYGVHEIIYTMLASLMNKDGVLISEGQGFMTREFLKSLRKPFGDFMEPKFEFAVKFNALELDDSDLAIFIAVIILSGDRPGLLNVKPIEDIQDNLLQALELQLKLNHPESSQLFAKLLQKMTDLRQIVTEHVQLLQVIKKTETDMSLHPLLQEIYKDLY
smiles,measurement,setting,value
CCN(CC)c1ccc(N)cc1,Potency,[1],active: 56 µM
same,Potency,[2],inactive
same,Potency,[3],"inconclusive: 70.5 µM [cytotoxic, single point]"
same,Potency,[4],inconclusive: 46.6 µM
same,Potency,[5],active: 44.8 µM
same,Potency,[6],inconclusive: 56.4 µM [single point]
same,Potency,[7],active: 31.7 µM
same,"ratio activity, negative = inhibition",[8],inconclusive: -96.6% [at 80.4 µM]
same,Potency,[9],"inconclusive: 63.3 µM [cytotoxic, partial curve, poor fit]"
same,activation,[10],inconclusive: 7.48% [at 81.1 µM]
same,Potency,[11],"inconclusive: 12.6 µM [falling, full curve]"
same,Potency,[12],"inconclusive: 63.3 µM [rising, single point]"
same,Potency,[13],inconclusive: 63.3 µM [single point]
same,Potency,[14],active: 20 µM
same,Potency,[15],inactive
